Source: PubChem BioAssay AID1745845 (National Center for Advancing Translational Sciences (NCATS), 2022)
About 2,600 (0.72%) of roughly 360,000 compounds were called active. The inconclusive results got no clear call from the source; some entries with a clear call stand among them for comparison. The call rests on the fitted dose curve; in most records, active means well fitted inhibition curve with a large enough effect; inconclusive means small, poorly fitted or top-dose-only effect; inactive means no such curve, though single readings can be large or run the other way. Potencies of inconclusive entries are doubtful fits and often do not repeat.

Assay: Primary qHTS for Inhibitors of ATXN expression; further: nearly all actives have a fitted effect of over 55% in size
Conditions: HEK-293 ATXN2-luciferase reporter, luminescence, 24 h; series mostly up to 57 µM
Text: University of Utah School of Medicine, Salt Lake City, Utah
Spinocerebellar ataxia type 2 (SCA2) is a multisystem neurodegenerative disease caused by a dominantly acting mutation leading to expansion of a polyQ domain in the ataxin-2 protein (ATXN2). SCA2 patients develop progressive ataxia and later lose function in other neuronal systems. Prominent parkinsonian signs develop in some patients. Like many neurodegenerative disorders, no symptomatic or disease-modifying treatments are known.
The primary objective of the proposed research is to identify compounds inhibiting ATXN2 expression and to test them for efficacy in SCA2 mouse models. We have developed a cell-based assay paired with an in vivo mouse model using identical luciferase expression constructs. This approach takes advantage of an ATXN2-luciferase transgene, with the luciferase gene flanked by the upstream and downstream portions of the ATXN2 gene. Here we describe a 5-7 dose quantitative high thoroughput screen (qHTS) for compounds lowering ATXN2 expression. We screened the NIH Molecular Libraries Small Molecule Repository (MLSMR) and NCGC's mechanistically annotated (MIPE) and drug repurposing (NPC) collections of compounds for lowering expression of an ATXN2-luciferase reporter in HEK-293 cells. The assay is a multiplexed cell viability assay to ensure target reduction in the absence of cytotoxicity. Secondary qHTS assays included a CMV-luciferase reporter expressed in HEK-293 cells as well as a biochemical assay using recombinant luciferase to detect inhibitors of the reporter enzyme. Compounds that inhibit ATXN2 expression but is not cytotoxic were selected for confirmatory and secondary screens.
PROTOCOL TABLE (as described by Inglese J, Shamu CE and Guy RK. 2007)
SEQUENCE No. (e.g., 1, 2, 3, etc.); […] (e.g., Cells, Incubation, Reagent, etc.); VALUE; DESCRIPTION.
1; Cells; 4 uL; white, solid bottom, 1536-well Greiner assay plate.
2; Incubation; 2 hr; 37 degree C in 5% humidified CO2.
3; Compounds; 23 nL; Kalypsis pintool (Wako USA) equipped with a 1536-well pin head.
4; Incubation; 24 hr; 37 degree C in 5% humidified CO2.
5; Reagent; 1 uL; Gly-Phe-7-Amino-4-trifluoromethylcoumarin.
6; Incubation; 30 min; 37 degree C in 5% humidified CO2.
7; Detection; Fluorescence; ViewLux plate reader (PerkinElmer).
8; Reagent; 3 uL; SteadyGlo luciferase solution (Promega).
9; Incubation; 5 min; room temperature.
10; Detection; Luminescence; ViewLux plate reader (PerkinElmer).
NOTES (numbers refer to Sequence numbers above)
1. S2 cells expressing ATXN2-luciferase reporter were suspended in phenol-red free DMEM and dispensed in assay plates using a Multidrop Combi dispenser (Thermo Fisher Scientific).
2. Assay plates were incubated. Evaporation was prevented by covering assay plates with metal lids containing holes to allow gas diffusion.
3. Compounds were added in a dose response manner with the final concentrations of 57, 11.4, 2.28, 0.46, 0.091, 0.018, 0.0037 uM. Vehicle-only plates, with DMSO being pin-transferred to columns 5-48, were inserted uniformly at the beginning and the end of each library to monitor and record any shifts in assay performance.
5. 125 uM Gly-Phe-7-Amino-4-trifluoromethylcoumarin (MP Biomedicals) working concentration was used at a final concentration of 25 uM.
7. To assess cell viability; the assay plates were read using the ViewLux high-throughput CCD imager (PerkinElmer), wherein single end-point fluorescence measurement was acquired (excitation 405/10; emission 540/25 nm).
8. Detection reagent SteadyGlo Luciferase (Promega) was added to the assay plate.
10. Luminescence is then measured on the ViewLux imager equipped with a clear emission filter using a 2 sec exposure. All screening operations were performed on a fully integrated robotic system (Kalypsys) containing one RX-130 and two RX-90 anthropomorphic robotic arms (Staubli).
[…]
Potency means the concentration at half of the fitted maximal effect; tags describe the fitted curve by direction and shape.

Potency, inactive:
CC1=C(C(=O)Nc2cccc(C(=O)N3CCN(c4cccc(C(F)(F)F)c4)CC3)c2)SCCO1, C=CCn1c(SCc2ccc(C#N)cc2)nnc1-c1ccc(C)cc1, COc1ccc(NC(=S)NCC2CCCO2)c(OC)c1 (centres undefined), C/C=C(\C)CN1CCN(c2cc(C)ccc2C)CC1, c1ccc(-c2noc(-c3ccncc3)n2)nc1, CC(=O)Nc1ccc(CN2CCCCCCC2)cc1, CS(=O)(=O)N1N=C(c2ccco2)CC1c1ccc(Cl)cc1 (centres undefined)

Potency, inconclusive:
Clc1ccc(C(Cn2ccnc2)OCc2ccc(Sc3ccccc3)cc2)c(Cl)c1 (centres undefined) 43.2 µM [inhibitor, single point], COc1ccc(-c2cn[nH]c2-c2ccc(OCc3ccccc3F)cc2O)cc1OC 31.6 µM [inhibitor, single point], O=C(NCc1ccccc1Cl)C1CCC(CNc2nc(=S)[nH]c3ccccc23)CC1 (centres undefined) 33.6 µM [inhibitor, partial curve, poor fit], O=[N+]([O-])c1ccc(NN=Cc2ccc(O)cc2O)nc1 8.91 µM [inhibitor, partial curve], Cc1ccc2cc(CN(CCc3ccccc3)C(=S)NCCCN(C)C)c(=O)[nH]c2c1 35.5 µM [inhibitor, single point], O=C(N/N=C\c1c(O)ccc2ccccc12)c1ccc(O)cc1 3.98 µM [inhibitor, full curve], Cc1ccccc1Cc1c(C)nc2c(-c3ccccc3)c(C)[nH]n2c1=O 14.1 µM [inhibitor, partial curve, poor fit], CCCCCCCn1c(=N)n(CC(=O)c2ccco2)c2ccccc21 20 µM [inhibitor, partial curve], COc1ccc(C(CNC(=O)c2ccc(S(=O)(=O)N(C)C)cc2)N2CCCCC2)cc1 (centres undefined) 1.68 µM [inhibitor, full curve, poor fit], C#Cc1ccc([C@H]2C=C(C(=O)N3CCN(Cc4ccc5c(c4)OCO5)CC3)O[C@@H](OCC)[C@@H]2CCCO)cc1 25.1 µM [inhibitor, partial curve, poor fit], O=C(Nc1nc(-c2ccccn2)cs1)c1ccc(F)c(S(=O)(=O)N2CCOCC2)c1 5.62 µM [inhibitor, full curve, poor fit], CCOC(=O)/C=C/C(=O)Nc1ccc(S(=O)(=O)N2CCc3ccccc32)cc1 0.752 µM [inhibitor, partial curve, poor fit]
